Test results taken from US5744298A, “DNA sequences which encode immunoreactive HCMV-specific peptides” (Behringwerke Aktiengesellschaft, priority 1991, dated 1998).
Not every detail of the peptide structures is certain; ends, links or a residue may be inferred. Where no end group is shown, it is not given here.

Legend:
CMV IgG-positive sera = test: ELISA of peptide-coated microtiter plates with CMV IgG-positive human sera (localization of epitopes); type: binding; conditions: plate coated with 2.5 μg peptide per ml, serum dilution 1:2; for Reactivity (individual reactivities of the synthetic pXP1 segments with the assayed group of CMV IgG-positive sera, in percent): Table 2; for Reactivity (individual reactivities of particularly reactive peptides with the assayed group of CMV IgG-positive sera, in percent): Table 3
Experimental: A microtiter plate with 96 wells was coated with a synthesized peptide. To do this, a solution of 2.5 μg of peptide per ml of carbonate buffer was made up and introduced in 100 μl portions into the wells for the coating. The peptides were adsorbed onto the surfaces at 4° C. overnight and, after removal of the peptide solution, the wells were washed several times with washing buffer (50 mM Tris, pH 7.2, 10 mM EDTA, 0.2% Tween 20). Then individual human serum samples in a 1:2 dilution were introduced and incubated at 37° C. for 1 hour. After another washing step, the conjugate antibody specific for human IgG antibodies or human IgM antibodies and labeled with peroxidase was added and the mixture was incubated at room temperature for 0.5 hour. The reaction was subsequently stopped by adding 0.5M sulfuric acid and extinction of the individual samples was measured at a wavelength of 450/650 nm in a photometer.
To test the immunogenicity, peptides of various length from the complete amino-acid sequence region from 718 to 880 of the HCMV protein pp150 (Tab. 2 and 3) were synthesized as described in Example 1. Subsequently, as in Example 2, the microtiter plates were coated with the synthesized peptides, and the immunological reactivity was assayed. […] The three immunologically reactive peptides have the following sequences: […]

[1] = tested on: monoclonal antibody 87-55/02; test: Reaction of the monoclonal antibody 87-55/02 with peptide epitopes (ELISA, immunoblot); type: binding; conditions: ELISA microtiter plate coated with 0.25 μg/well
Excerpt: It was concluded from the method for selecting the monoclonal antibody that the identified epitope must have a very important structure which is not even destroyed by denaturation of the complete protein. This monoclonal antibody correspondingly reacts both with the synthesized peptide 2.7 (SEQ ID NO:26) and with the recombinant protein XP1 (SEQ ID NO:33) and the pp150 protein of HCMV.

Row | Substance | Reactivity (individual reactivities of the synthetic pXP1 segments with the assayed group of CMV IgG-positive sera, in percent) (CMV IgG-positive sera) [%] | Reactivity (individual reactivities of particularly reactive peptides with the assayed group of CMV IgG-positive sera, in percent) (CMV IgG-positive sera) [%] | reaction of monoclonal antibody 87-55/02 with coated peptide [1]
1 | DMNPANWPRERAWAL [Peptide 2.7, asp met asn pro ala asn trp pro arg glu arg ala trp ala leu] | 60 | 60 | very clearly distinct
2 | GAGVNVPAGAGAAILTPTPVNPSTAPAPAP-NH2 [Peptide 1.11, gly ala gly val asn val pro ala gly ala gly ala ala ile leu thr pro thr pro val asn pro ser thr ala pro ala pro ala pro-amide] | 90 | 90 | –
3 | APAPAPTPTFAGTQTPVNGNS [SEQ ID NO: 35, ala pro ala pro ala pro thr pro thr phe ala gly thr gln thr pro val asn gly asn ser] | 20 | – | –
4 | AYKFEQPTLTFGAGVNVPAGAGAAIL [Peptide 1.1, ala tyr lys phe glu gln pro thr leu thr phe gly ala gly val asn val pro ala gly ala gly ala ala ile leu] | – | 80 | –
5 | PVTTAYKFEQPTLTF [SEQ ID NO: 39, pro val thr thr ala tyr lys phe glu gln pro thr leu thr phe] | 10 | – | –
6 | DPRFTDTLVDI [Peptide 20, asp pro arg phe thr asp thr leu val asp ile] | 10 | – | –
7 | VNVPAGAGAAILTPTPVNP [Peptide 1.7, val asn val pro ala gly ala gly ala ala ile leu thr pro thr pro val asn pro] | – | 70 | –
8 | PANWPRERAWALKNPHL [Peptide 2.3, pro ala asn trp pro arg glu arg ala trp ala leu lys asn pro his leu] | – | 70 | –
9 | ERAWALKNPHLAYNPFRMPTT [Peptide 2.6, glu arg ala trp ala leu lys asn pro his leu ala tyr asn pro phe arg met pro thr thr] | – | 70 | –
